In all, about 190,000 compounds went through this assay and about 360 (0.19%) were called active. Inconclusive results, whose numbers are uncertain, are shown with a selection of clear calls.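 How the source made its calls: active means GTP binding activity at least 20 points away from 100%, either lowered or raised; inconclusive means signal likely due to the compound's own green fluorescence; inactive means the rest.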
The compounds below were run against Ras-related protein Rab-2A (Canis lupus familiaris) (UniProt P61105) (assay: Rab2 wt fluorescent GTP binding changes, either direction – biochemical, dog, bead-based flow cytometry, multiplex, primary screen (AID 760;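 further: 0% = beads with excess unlabeled GTP and 100% = no-compound control corrected for plate trend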)). Conditions: GST-Rab2 wt beads, Bodipy-GTP binding, at 10 µM.
With `CS(=O)(=O)N1CCC(C(=O)Nc2ccc(Cl)c(Cl)c2)CC1` the GTP binding activity was inconclusive: 92%.
`Cc1nc(C)c(-c2csc(Nc3cccnc3)n2)s1` was tested, and the GTP binding activity was inconclusive: 88%.
For `CNC(=S)N/N=C/c1cn(Cc2c(F)cccc2Cl)c2ccccc12`, the GTP binding activity was inconclusive: 96%.
In the case of `COc1cc2c(cc1OC)CN(CC(=O)Nc1ccc(Cl)c(S(=O)(=O)N(C)C)c1)CC2`, the GTP binding activity is reported as inactive: 96%.
For `O=C(NCc1ccco1)c1cnn2c(C(F)F)cc(-c3ccccc3)nc12`, the GTP binding activity was inactive: 98%.
For `COc1ccc(/C=N\NC(=O)c2sc(N)nc2C)cc1OC`, the GTP binding activity was inconclusive: 87%.
With `CN(CCc1cnn(C)c1)Cc1cn[nH]c1-c1ccc(-c2ccccc2)cc1` the GTP binding activity was inactive: 94%.
`COc1ccc(C(=O)CCc2nc3ccccc3s2)cc1` was tested, and the GTP binding activity was inactive: 99%.
In the case of `CCc1ccc(NC(=S)N2CCN(c3cccc(OC)c3)CC2)cc1`, the GTP binding activity is reported as inactive: 96%.
For `OC(CNCCC1C=Nc2ccccc21)Cn1c2ccc(Cl)cc2c2cc(Cl)ccc21` (stereo unspecified), the GTP binding activity was inactive: 113%.
With `Cc1sc(NC(=O)c2ccco2)c(C(c2ccncc2)N2CCOCC2)c1C` (stereo unspecified) the GTP binding activity was inconclusive: 106%.
For `NS(=O)(=O)c1cccc(NC(=O)Cn2cnc3ccccc3c2=O)c1`, the GTP binding activity was inactive: 104%.
`COc1ccc(Cc2c[nH]c(=O)[nH]c2=O)cc1` was tested, and the GTP binding activity was inconclusive: 93%.
For `Cc1ccc(-c2nnc(-c3ccccc3S(=O)(=O)Cc3ccc(Cl)cc3)o2)cc1`, the GTP binding activity was inconclusive: 109%.
In the case of `CCCC(c1nnnn1C(C)(C)C)N1CCN(Cc2ccccc2)CC1` (stereo unspecified), the GTP binding activity is reported as inactive: 98%.
`CC(C)CCNC(=O)COC(=O)c1cc(Br)c(Br)s1` was tested, and the GTP binding activity was inconclusive: 91%.
`COc1cccc(CNCC(O)(c2ccc(Cl)cc2)c2ccc(Cl)cc2)c1` was tested, and the GTP binding activity was inconclusive: 105%.
With `COc1ccc(OCCSc2nc3nc(C)cc(C)n3n2)cc1` the GTP binding activity was inconclusive: 77%.
With `C/C(N)=C(/C#N)C(=O)CSc1nnnn1-c1ccc(C)cc1` the GTP binding activity was inconclusive: 102%.
For `O=C(O)c1cc(-c2ccc(/C=C3\NC(=O)N(c4ccc(Cl)cc4)C3=O)o2)ccc1Cl`, the GTP binding activity was inactive: 80%.
For `COc1ccc(CC(=O)NCc2cccs2)cc1`, the GTP binding activity was inconclusive: 103%.
In the case of `Cc1cc(C)cc(Nc2nc3c([nH]2)c(=O)n(C)c(=O)n3C)c1`, the GTP binding activity is reported as inconclusive: 95%.
With `CC1CCCN(C(=S)NC2CCCC2)C1` (stereo unspecified) the GTP binding activity was inactive: 97%.
With `O=C(O)CCC(=O)Nc1ccc(Br)cn1` the GTP binding activity was inactive: 96%.
`CCCCCCn1c(=O)[nH]c2nc3cc(N)c(C)cc3nc2c1=O` was tested, and the GTP binding activity was inconclusive: 85%.
`O=C(NCCCN1CCCCC1)c1ccc2c(c1)NC(=O)C(N1CCOCC1)S2` (stereo unspecified) was tested, and the GTP binding activity was inconclusive: 90%.
For `Cc1ccc(N2CC(O)=C(c3ccccc3)C2=N)cc1`, the GTP binding activity was inconclusive: 94%.
With `COc1cccc(Nc2c(F)c(F)c(F)c(F)c2C(=O)O)c1` the GTP binding activity was inactive: 113%.
With `CCOCc1c(C(=O)NC2CCCCCC2)oc2ccccc12` the GTP binding activity was inconclusive: 98%.
For `CCOC(=O)N1CCN(C(=S)Nc2cccc(C)c2C)CC1`, the GTP binding activity was inconclusive: 103%.
In the case of `Cc1cccc2sc(NC(=O)CSCc3ccccc3)nc12`, the GTP binding activity is reported as inconclusive: 90%.
For `COc1ccccc1-c1cc(C(F)(F)F)nc(N2CCN(c3ccccc3)CC2)n1`, the GTP binding activity was inconclusive: 106%.
For `COc1ccc(C2(CNC(=O)Cc3ccc(OC)c(OC)c3)CCOCC2)cc1`, the GTP binding activity was inconclusive: 90%.
For `CCOc1ccc(C(C(=O)NC2CCCC2)N(CCCO)C(=O)c2ccc(-c3ccccc3)[nH]2)cc1` (stereo unspecified), the GTP binding activity was inactive: 92%.
With `COc1coc(C(O)C[N+](=O)[O-])cc1=O` (stereo unspecified) the GTP binding activity was inactive: 100%.
In the case of `CCOC(=O)C1(Cc2cccc(F)c2)CCN(Cc2nc(CC)[nH]c2C)CC1`, the GTP binding activity is reported as inconclusive: 129%.
`CN(C)c1ccc(/C=C/C(=O)c2cccc(Br)c2)cc1` was tested, and the GTP binding activity was inconclusive: 118%.
In the case of `Cc1ccccc1NC(=S)N(CCCN1CCOCC1)Cc1ccccn1`, the GTP binding activity is reported as inconclusive: 101%.
In the case of `CC(NC(=O)OCc1ccccc1)C(=O)Oc1cc2oc(=O)cc(-c3ccccc3)c2cc1Cl` (stereo unspecified), the GTP binding activity is reported as inconclusive: 92%.
`O=C(CCN1CCc2ccccc2C1)Nc1cccc(F)c1` was tested, and the GTP binding activity was inconclusive: 104%.
With `CC1=CC(=O)C=C(C)C1=NOS(=O)(=O)c1ccccc1` the GTP binding activity was inactive: 88%.
`O=C1OC(OC2CCCCC2)(c2ccccc2)c2ccccc21` (stereo unspecified) was tested, and the GTP binding activity was inconclusive: 109%.
For `Cn1c(C(=O)N2CCc3ccccc3C2)cc2c(=O)n3ccccc3nc21`, the GTP binding activity was inconclusive: 116%.
With `Fc1cccc(Nc2ncnc3[nH]ncc23)c1` the GTP binding activity was inactive: 88%.
In the case of `CCOC(=O)N1CCN(/C=C(\C#N)c2nc3ccccc3s2)CC1`, the GTP binding activity is reported as active: 129% [activator].
With `CN(C(=O)Nc1ccc(Cl)cc1Cl)C1CCCC1` the GTP binding activity was inactive: 100%.
With `O=C(/C=C/c1ccccc1)N1CCC(Cc2ccccc2)CC1` the GTP binding activity was inconclusive: 91%.
With `NS(=O)(=O)c1ccc(NC(=O)C2C3C=CC(C3)C2C(=O)O)cc1` (stereo unspecified) the GTP binding activity was inconclusive: 98%.
In the case of `CC1=C(C(=O)Nc2ccccc2)C(c2ccncc2)n2nnnc2N1` (stereo unspecified), the GTP binding activity is reported as inactive: 97%.
With `CCC(=O)Nc1c(C#N)c2nc3ccccc3nc2n1C1CCCCC1` the GTP binding activity was inconclusive: 111%.
In the case of `COc1cccc(N=Nc2c(N)[nH]n3c(=O)c4c(nc23)CCCC4)c1`, the GTP binding activity is reported as inconclusive: 63%.
`COc1ccc(C(C)=O)cc1COC(=O)c1cccnc1SC` was tested, and the GTP binding activity was inactive: 95%.
`Cc1ccc(N=Nc2c(N)[nH]n3c(=O)cc(-c4ccccc4)nc23)cc1` was tested, and the GTP binding activity was active: 78%.
With `CC(C)NC(=S)N(CCc1ccncc1)C(C)C` the GTP binding activity was inactive: 99%.
For `COc1ccc(N(C(=O)c2ccc(Br)o2)C2C=CS(=O)(=O)C2)cc1` (stereo unspecified), the GTP binding activity was inconclusive: 101%.
For `Cc1cc(NCc2ccccn2)n2c(nc3ccccc32)c1C#N`, the GTP binding activity was active: 70%.
`CSCCC(NC(=O)C1CCC(C)CC1)C(=O)N1CCN(c2ccccn2)CC1` (stereo unspecified) was tested, and the GTP binding activity was inconclusive: 108%.
`Cc1noc(C)c1C(c1ccccc1)S(=O)(=O)c1ccccc1` (stereo unspecified) was tested, and the GTP binding activity was inconclusive: 102%.
With `COc1cc(NS(=O)(=O)c2ccc(Nc3nc(-c4ccccc4)cs3)cc2)nc(OC)n1` the GTP binding activity was active: 77%.
`CC1CCN(CCCNC(=O)COc2cc(=O)n(C)c3ccccc23)CC1` was tested, and the GTP binding activity was inconclusive: 105%.
With `COc1ccc(N2CCN(C(=O)c3cccnc3SCc3cccc(Br)c3)CC2)cc1` the GTP binding activity was inactive: 96%.
